Results published in PMC4336329 (PLoS ONE, 2015).
Out of some 310,000 compounds screened, about 14,000 (4.5%) showed an effect of 50% or more. The effect is printed as a negative number. Some of the results follow.

Target: human ether-à-go-go-related gene (hERG) potassium channel (human, UniProt Q12809)
Test: primary screen, population patch clamp on CHO cells stably expressing hERG
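Also: peak tail current of the secondary pulse compared with the same well before compound.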

Sequence of human ether-à-go-go-related gene (hERG) potassium channel (Q12809 whole entry, looked up): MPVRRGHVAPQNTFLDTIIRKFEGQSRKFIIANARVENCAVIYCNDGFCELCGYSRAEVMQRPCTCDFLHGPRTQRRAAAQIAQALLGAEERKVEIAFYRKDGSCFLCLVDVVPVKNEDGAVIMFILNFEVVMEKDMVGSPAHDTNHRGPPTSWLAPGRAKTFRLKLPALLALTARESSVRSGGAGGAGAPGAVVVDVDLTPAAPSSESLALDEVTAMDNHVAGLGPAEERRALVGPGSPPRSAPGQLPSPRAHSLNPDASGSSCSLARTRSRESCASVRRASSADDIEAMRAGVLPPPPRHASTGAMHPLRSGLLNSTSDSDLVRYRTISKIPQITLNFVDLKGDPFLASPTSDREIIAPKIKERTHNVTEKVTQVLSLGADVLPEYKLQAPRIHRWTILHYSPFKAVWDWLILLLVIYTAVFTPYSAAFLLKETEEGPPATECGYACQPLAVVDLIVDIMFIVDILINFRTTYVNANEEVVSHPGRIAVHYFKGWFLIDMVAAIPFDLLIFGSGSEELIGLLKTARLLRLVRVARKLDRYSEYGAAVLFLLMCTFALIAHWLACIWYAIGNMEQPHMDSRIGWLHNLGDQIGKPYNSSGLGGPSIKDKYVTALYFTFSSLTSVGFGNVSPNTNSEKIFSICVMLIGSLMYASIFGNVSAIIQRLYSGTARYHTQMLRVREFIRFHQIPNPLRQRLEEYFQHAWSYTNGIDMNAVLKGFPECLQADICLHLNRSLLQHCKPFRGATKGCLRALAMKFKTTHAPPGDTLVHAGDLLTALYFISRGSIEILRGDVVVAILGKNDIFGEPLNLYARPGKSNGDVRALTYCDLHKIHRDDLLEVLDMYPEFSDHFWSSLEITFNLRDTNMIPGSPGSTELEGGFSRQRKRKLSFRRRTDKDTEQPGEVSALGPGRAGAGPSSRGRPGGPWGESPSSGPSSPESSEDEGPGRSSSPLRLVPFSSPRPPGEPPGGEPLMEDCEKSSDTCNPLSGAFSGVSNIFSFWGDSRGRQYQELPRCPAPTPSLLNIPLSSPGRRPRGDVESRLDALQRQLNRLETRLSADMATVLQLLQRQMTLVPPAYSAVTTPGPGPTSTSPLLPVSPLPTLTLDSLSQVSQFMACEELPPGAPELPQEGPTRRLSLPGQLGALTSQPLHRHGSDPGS

Row | Compound | hERG current change (%, negative = inhibition) at 10uM [%]
1 | Cc1c(N=C2N=C(NC(=O)Nc3ccc(Cl)cc3)c3ccccc32)c(=O)n(-c2ccccc2)n1C | 13.2
2 | Cc1ccc(S(=O)(=O)NCc2ccco2)cc1C(N)=O | 21.4
3 | CCn1ccnc1CN1CCCC(C(=O)c2cccc(C(F)(F)F)c2)C1 (stereo not drawn) | -31.1
4 | Cc1cc(=O)oc2c(CN3CCCC3)c(O)c(Cl)cc12 | 5.35
5 | COc1ccc(OCC(=O)NCC(c2ccc(OC)cc2)N2CCCCC2)cc1 (stereo not drawn) | -33.1
6 | Cc1cc(N2C(=O)C(=O)/C(=C(/O)c3ccc(F)cc3)C2c2cccc(Br)c2)no1 (stereo not drawn) | 2.87
7 | COCCNC(=O)CNC(=S)N(Cc1ccccc1)Cc1cccnc1 | -0.88
8 | CCC(=O)Nc1cc(OC)cc(OC)c1 | 17.2
9 | Cc1nc(OCc2c(C)noc2C)c2ccccc2n1 | 8.9
10 | COc1ccc(S(=O)(=O)N2CCCCCC2)cc1C(=O)N1CCCCC1 | -0.195
11 | O=C(Nc1cccnc1)c1ccc2snnc2c1 | 0.558
12 | Cc1ccc(-n2c(O)c(/C=N/N3CCCCCC3)c(=O)[nH]c2=O)cc1C | -0.773
13 | O=C1C=C(NCc2ccco2)C2(CCCCC2)O1 | -3.65
14 | COc1ccc(/C=C(\NC(=O)c2cccs2)C(=O)NC(C)(C)C)cc1OC | 14.8
15 | O=C(Nc1cccc(-c2nc3ncccc3o2)c1)c1sc2cc(Cl)ccc2c1Cl | -5.83
16 | Cc1ccc(-n2ncc3c(SCC(=O)Nc4cc(C)on4)ncnc32)c(C)c1 | 17.9
17 | O=C(/C=C/c1ccccc1Cl)NNC(=O)c1ccncc1 | -11.4
18 | O=C(Nc1nnc(SCc2ccccc2Cl)s1)c1cccc([N+](=O)[O-])c1 | -3.26
19 | CC(=O)Nc1ccc(SC[C@H](CC(C)C)N2CCN(CC(C)C)CCC2=O)cc1 | -28.1
20 | COc1ccc(C(=O)N/C(=C\c2ccc3c(c2)OCO3)C(=O)Nc2ccc(C(=O)O)cc2)cc1 | 17.8
21 | COc1ccccc1NC(=O)c1cc(S(=O)(=O)NCc2ccccc2)ccc1F | 20
22 | COc1ccc(C(C)=O)cc1CC(C(=O)c1ccc(Br)cc1)N(C)C (stereo not drawn) | -7.82

Row | Compound | hERG current change (%, negative = inhibition) at 10uM [%]
23 | Cc1cc(NS(=O)(=O)c2ccc(NC(=O)c3ccc(Cl)cc3[N+](=O)[O-])cc2)no1 | 21.2
24 | N#C/C=C/C#N | 9.42
25 | CCC(/C=N/NC(=O)C(=O)N/N=C/C(CC)CC)CC | 9.86
26 | O=C(Cn1c(=O)oc2ccccc21)Nc1ccc(F)c(F)c1 | 16.6
27 | Cc1ccc2cc(CCNC(=O)C(C)C)c(=O)[nH]c2c1C | 11.9
28 | CC1SC(C)C(=O)N(CC(=O)Nc2ccc3c(c2)OCO3)C1=O (stereo not drawn) | 10.3
29 | CC(C)(C)NS(=O)(=O)c1ccc(CCC(=O)NCc2ccco2)cc1 | 2.7
30 | COc1cccc(CC(=O)Nc2nccs2)c1 | 0.299
31 | O=C(COc1ccc([N+](=O)[O-])cc1)N(Cc1ccccc1)Cc1ccccc1 | -41.5
32 | Cc1nc(C)c(C(=O)O)c(-c2cccs2)c1C(=O)O | -1.36
33 | Cc1ccc(C)n1-c1ccc(C(=O)NCc2ccncc2)cc1 | -4.4
34 | CC/C(=C\c1oc2cc3ccccc3cc2[n+]1CC)Nc1ccccc1.[I-] | -78.1
35 | CN1CCN2c3ncccc3Cc3ccccc3[C@@H]2C1 | -0.0533
36 | Cc1occc1-c1nnc(SCC(=O)c2ccccc2)n1CC1CCCO1 (stereo not drawn) | -8.58
37 | CCOc1ccccc1NC(=O)CNC(=O)c1nn(-c2ccc(OC)c(OC)c2)c(=O)c2ccccc12 | -2.11
38 | CCOC(=O)Nc1nc(-c2ccc(F)cc2F)cs1 | 5.99
39 | COc1ccc(CCN2CC(C(=O)NCCc3ccccn3)CCC2=O)cc1 (stereo not drawn) | -1.14
40 | COc1ccc(C)cc1NC(=O)C1CCCN(S(=O)(=O)c2cccnc2)C1 (stereo not drawn) | 4.23
41 | CCCNS(=O)(=O)c1ccc(OCC(=O)Nc2ccc3c(c2)OCCO3)c(C)c1 | -7.32
42 | Cc1ccc(C(C)C)cc1OCCn1cncn1 | 3.69
43 | CCCN(CCC)S(=O)(=O)c1cc(Br)cc2c1N(C(=O)CC)CC2 | -2.75
44 | O=C1CCCc2oc3c(c21)CCCC3 | -3.83

Row | Compound | hERG current change (%, negative = inhibition) at 10uM [%]
45 | O=C(COC(=O)C1=COCCO1)NCCCc1ccccc1 | 10.4
46 | CC(=O)c1cccc(NC(=O)CN(c2ccccc2)S(C)(=O)=O)c1 | -19.8
47 | CCc1cccc(CC)c1NC(=O)COC(=O)c1ccc2c(c1)S(=O)(=O)c1ccccc1C2=O | 1.76
48 | COc1ccc(C(=O)N2CCOC2CNC(=O)C(=O)NCc2ccco2)cc1 (stereo not drawn) | -1.34
49 | Brc1ccc(-n2c(SCc3nc4ccccc4[nH]3)nnc2-c2ccncc2)cc1 | -13.6
50 | Cc1ccc(-c2nc3ccccc3c(=O)n2-c2nccs2)cc1 | 4.82
51 | Cc1nonc1CN(C)C(=O)CC1C(=O)NCCN1Cc1ccccc1C(F)(F)F (stereo not drawn) | 8.07
52 | Cc1ccc(NC(=O)CCNC(=O)c2ccc(Br)cc2)cc1S(=O)(=O)N1CCCCCC1 | -25
53 | CC(=O)Nc1cccc(OCCCNC(=O)c2ccc(F)cc2)c1 | -3.33
54 | COc1ccc(C(O)(C(C)C)C(CN2CCOCC2)c2ccc(Cl)cc2)cc1.Cl (stereo not drawn) | 4.99
55 | Cc1ccc(NC(=O)CN(C)c2ccc(S(=O)(=O)N3CCCC3)cn2)cc1 | -2.1
56 | Cc1ccc(-c2cn3c(=O)cc(C)[nH]c3n2)cc1 | 7.89
57 | CCOC(=O)c1cnc2cc(-c3ccc(Cl)cc3)nn2c1N | 8.48
58 | Cc1nn(CC(=O)NCCCN2CCC(N3CCCCC3)CC2)c(=O)c2cc(-c3ccccc3)nn12 | -23.3
59 | COc1ccc(CNC(=O)C(=O)NCCC2CCCCN2S(=O)(=O)c2ccccc2)cc1 (stereo not drawn) | -15.2
60 | O=C(NC1CC1)C1=C[C@H](c2coc3ccccc3c2=O)C[C@H](OCc2ccc(CO)cc2)O1 | -20.7
61 | Cc1nc2ccc(-c3ccccc3)cc2o1 | -17.1
62 | Cc1ccc(-n2cnc3ncnc(-c4ccccc4)c32)cc1 | -6.83
63 | COc1cc(/C=N/N(C)S(=O)(=O)c2ccc(C)cc2)cc([N+](=O)[O-])c1O | 1.54
64 | Cc1ccc(S(=O)(=O)Cc2ccc(C(=O)NCCCN3CCN(C)CC3)o2)cc1 | 15.6
65 | COc1cc(CCCN2CCNC[C@@H]2Cc2ccc(O)cc2)cc(OC)c1OC | 2.42
66 | COc1ccc(NC(=O)CN2CCN(c3nc(-c4ccc(F)cc4)cs3)CC2)c(OC)c1 | 20.7

Row | Compound | hERG current change (%, negative = inhibition) at 10uM [%]
67 | O=C(NC1CCCCCC1)C1CCCN(S(=O)(=O)c2cccs2)C1 (stereo not drawn) | 11.1
68 | COc1ccc(Nc2nc(N)nc(COc3ccc(OC)cc3)n2)cc1 | 4.75
69 | O=C(CCC(=O)OCC(=O)c1ccc(Br)cc1)Nc1cccc2cccnc12 | -1.66
70 | COc1ccc(S(=O)(=O)N(CC(=O)Nc2ccccc2C(=O)N2CCOCC2)c2ccc(F)cc2)cc1 | -57
71 | O=C(Nc1c2n(c(=S)n(-c3ccccc3)c1=O)CCCCC2)c1ccccc1 | -20.9
72 | CCn1c(SCC(=O)NC2CCCCC2)nnc1-c1ccco1 | -6.51
73 | O=C(COC(=O)c1ccc([N+](=O)[O-])s1)NCCc1ccccc1 | -13.5
74 | COc1cccc(N2CCN(CC(=O)c3c[nH]c4ccc(OC)cc34)CC2C)c1 (stereo not drawn) | -29.5
75 | O=C(NC(=O)N1CCSCC1)c1c(Cl)cccc1Cl | 14.1
76 | CN(C)C(=O)c1c([N+](=O)[O-])ncn1C | 10.9
77 | COc1ccc(NC(=O)CSc2nccn2Cc2ccc(F)cc2)cc1 | -25.1
78 | CCOC(=O)C(NC(=O)Nc1ccccc1)(OCC)C(F)(F)F (stereo not drawn) | 1.14
79 | CC(=O)/C(C#N)=C1\NC(=O)C(Cc2ccccc2C)S1 (stereo not drawn) | 13.1
80 | CCS(=O)(=O)c1cc([N+](=O)[O-])c(Sc2ccccc2NC(C)=O)s1 | 8.29
81 | Cl.O=C(c1ccco1)N1CCN(C(c2ccccc2F)c2nnnn2CC2CCCO2)CC1 (stereo not drawn) | -17.2
82 | CCCN1CNC(=S)N(CCc2ccccc2)C1 | 8.83
83 | O=S(=O)(c1ccccc1)c1nc(Nc2ccccc2N2CCOCC2)sc1Cl | -30.6
84 | COc1ccc(C(C(=O)NCc2ccccc2)N(Cc2ccco2)C(=O)c2snc(C(N)=O)c2N)cc1OC (stereo not drawn) | 14.5
85 | Cc1cc(C)nc(NS(=O)(=O)c2ccc(NC(=O)C3CC(=O)N(c4ccccc4)C3)cc2)n1 (stereo not drawn) | -3.24
86 | Cc1ccc2sc(NC(=O)c3ccc(N4C(=O)CCC4=O)cc3)nc2c1C | 15.7
87 | Cc1ccc(NC(=O)c2sccc2-n2cccc2)c(C)c1 | 9.73
